Hit rate of the full screen: of about 52,000 compounds, about 1,700 (3.3%) were called active. Cut-off read from the data, not from the text of the source: active = survival mostly below about 52% (no sharp cut-off); inactive = mostly above about 56%. The list shows a part of the results.

The test system of this assay is Wild type. As to the kind of experiment: S. aureus survival, RN4220 and DeltatarO strains – OD600, teichoic acid synthesis inhibitors, primary screen (AID 463173). Conditions: S. aureus RN4220 wild type/DeltatarO growth, OD600, 18 h, hits give low values, screened at 18.75 µg/mL (by protocol).
In the case of `COc1ccc(NC(=O)c2ccco2)cc1NC(=O)COc1ccc(C)cc1C`, the survival was inactive: 86%. Consider `O=C(Nc1nonc1-c1ccc(Br)cc1)c1ccco1`, for which the survival is inactive: 76%. For the molecule `Cc1nc2ccccc2n1CCc1nc2c3ccccc3nc(SCC(=O)Nc3ccc(C(C)C)cc3)n2n1`, the survival is inactive: 68%. Under `CC1CC(C(F)F)n2nc(C(=O)Nc3sc4c(c3C#N)CCC(C(C)(C)C)C4)nc2N1` (centres undefined) stands inactive: 101%. Consider `Clc1ccc(CSc2nc3ncccc3[nH]2)cc1`, for which the survival is inactive: 79%. Then `Cc1ccc(NC(=O)Cc2ccc(NC(=O)N3CCCCc4ccccc43)cc2)cc1`, with inactive: 71%; and `CCCc1ccc(NC(=O)C2CCN(c3cnccn3)CC2)cc1`, with inactive: 98%. With `Cc1cc(Cl)ccc1NC(=O)CN1C(=O)C(=O)c2ccccc21`, the survival was inactive: 74%.

Consider `O=C(Nc1cccc(S(=O)(=O)c2cccc(NC(=O)c3ccco3)c2)c1)c1ccco1`, for which the survival is inactive: 124%. Regarding `Cc1ccc(NCc2n[nH]c(=S)n2C)cc1Cl`, the survival is inactive: 104%. With `CCOc1ccc(C(=O)O)o1`, the survival was inactive: 100%.

Consider `O=C(O)CSc1nc2c(c(C(F)(F)F)n1)CCc1ccccc1-2`, for which the survival was inactive: 101%. Then `CCN1CCN(C(c2ccccc2)c2c(O)cc(C)n(CCOC)c2=O)CC1` (centres undefined), with inactive: 91%; and `Cc1csc(-c2coc3cc(O)cc(C)c3c2=O)n1`, with inactive: 87%. `COCCCNc1cc(C)nc2ccccc12`: the survival was inactive: 121%. Then `COc1ccc(S(=O)(=O)Cc2ccc(C(=O)NC3CCCCC3)o2)cc1`, with inactive: 124%.

In the case of `COC(=O)Cn1cnc2c1c(=O)n(C)c(=O)n2C`, the survival was inactive: 118%. Then `CCCCC(=O)Nc1ccc(C(=O)OCc2cc(=O)n3nc(C4CC4)sc3n2)cc1`, with inactive: 119%; and `COC(=O)C1=C(c2ccccc2)c2ccccc2S(=O)(=O)N1CC(=O)Nc1ccccc1C(F)(F)F`, with inactive: 65%.

Consider `Cc1cccc(N2CCN(c3ccc(C(=O)O)cc3NC(=O)c3ccccc3F)CC2C)c1` (centres undefined), for which the survival was inactive: 69%. For `Cn1c(=O)n(CCc2ccccc2)c(=O)c2c1nc1n2CCN1c1ccc(Cl)cc1`, the survival was inactive: 85%.

Regarding `CC(C(=O)Nc1ccccc1C(F)(F)F)n1nc(-c2ccccc2)c2c(c1=O)CCCC2` (centres undefined), the survival was inactive: 69%.

Consider `COc1cc(SC#N)ccc1N=Cc1c(O)n(-c2cccc(C)c2)c(=O)[nH]c1=O`, for which the survival is inactive: 102%. Regarding `Cc1cc(C)c2c(-n3cccc3)c(C(=O)NCCc3ccccc3)sc2n1`, the survival was inactive: 86%. Turning to `CCN(CC)c1ccc(C(=O)NCc2ccc3c(c2)CCN3C(C)=O)cc1`, the survival is inactive: 68%.

With `CC(C)CC(=O)Nc1c(C(=O)N2CCN(c3ccccc3F)CC2)oc2ccccc12`, the survival was inactive: 82%. Consider `COC(=O)c1c(O)c[nH]c1C`, for which the survival was inactive: 110%. Then `CC(=O)c1ccc(N2CCN(C(=O)Nc3cccc(F)c3)CC2)cc1`, with inactive: 79%; and `CC(C)Oc1ccc(CNC(=O)CCCn2c(=O)c3cccn3c3cccnc32)cc1`, with inactive: 111%; and `COc1cccc(-c2nnc3n(Cc4ccccc4Cl)c(=O)c4ccccc4n23)c1O`, with inactive: 86%. As for `O=C(NCc1ccc2c(c1)CCN2C(=O)c1ccncc1)c1ccc(Cl)cc1`, the survival is inactive: 78%. `Cc1c(Cl)cccc1NC(=O)CN1C(=O)CCn2nc(-c3cccn3C)cc21`: the survival is inactive: 76%. Then `Cc1ccc(S(=O)(=O)Nc2c(C)nn(C)c2C)cc1`, with inactive: 93%; and `COCCN(CCOC)C(=O)c1cc2c(=O)n3ccccc3nc2n1C`, with inactive: 84%. Then `COc1cc(-c2nc3ccc(C)cn3c2Nc2ccc(Cl)cc2)ccc1O`, with inactive: 75%. Regarding `COc1cccc(C(=O)NC2=NC(c3ccc(N(C)C)cc3)CC(=O)N2)c1` (centres undefined), the survival was inactive: 64%. Take `O=C(CSc1nc(-c2ccccc2)cn1-c1ccccc1)Nc1ccccc1`: the survival is inactive: 68%. Regarding `CCn1c(NCc2cccc(Cl)c2)nc2ccccc21`, the survival was inactive: 97%. Regarding `O=C(NCCCN1CCCCC1)c1cc(Sc2ccc(Cl)cc2)nc2ccccc12`, the survival is active: -1%. For the molecule `Cc1ccc(Cn2c(C(=O)O)c(CNCCc3ccco3)c3ccc(C)cc32)cc1`, the survival was inactive: 82%. Turning to `Cc1cc(C)c(C(=O)Nc2ccccc2)c(SCC(=O)Nc2ccc(Br)cc2C)n1`, the survival was inactive: 72%. For `O=C1C2C3C=CC(C3)C2C(=O)N1CN(Cc1ccccc1)CN1C(=O)C2C3C=CC(C3)C2C1=O` (centres undefined), the survival is inactive: 113%. Regarding `COc1ccc(-n2c(=O)c3ccc(C(=O)NCc4ccc(C)cc4)cc3n(CC(=O)Nc3ccc(C)cc3)c2=O)cc1`, the survival was inactive: 77%. In the case of `O=S(=O)(c1ccc(Br)cc1)c1nnn2c1nc(NCc1cccs1)c1sccc12`, the survival is inactive: 75%. In the case of `CC(=O)c1ccc(N2CCN(C3C(=O)c4ccccc4N3C(C)=O)CC2)cc1` (centres undefined), the survival was inactive: 68%. For the molecule `COc1ccc(-c2cc(C(=O)NCCc3ccccc3)c3cc(C(C)C)ccc3n2)cc1`, the survival was inactive: 71%. For `COc1ccc(-n2cc(C(=O)NCc3cccc(OC)c3)c3ccccc3c2=O)cc1`, the survival was inactive: 111%. For `CC(=O)N/N=C/c1ccc(C)c(C)c1C`, the survival is inactive: 107%. Regarding `CCOc1cc(-c2nc(-c3ccc(-c4ccc(OC)cc4)nc3OC)no2)cc(OCC)c1OCC`, the survival is inactive: 59%.

As for `COCCCNC(=O)C1CCN(c2cc(C)nc3c(-c4ccc(OC)c(OC)c4)c(C)nn23)CC1`, the survival was inactive: 82%. In the case of `COc1ccc(Cl)cc1NC(=O)c1nn(C)c2c1CS(=O)(=O)c1ccccc1-2`, the survival is inactive: 83%. For `COc1ccc2nc(NC(=O)c3ccc(S(=O)(=O)N4CCCC(C)C4)cc3)sc2c1` (centres undefined), the survival is inactive: 75%. Consider `O=C(CN1CCC(N2CCCCC2)CC1)c1ccc(F)cc1`, for which the survival was inactive: 110%. Under `O=C(CSc1nc(=O)n(Cc2ccco2)c2c1CCC2)NCc1ccc(F)cc1` stands inactive: 70%; under `CC1=C(C(=O)Nc2ccccc2C)C(c2ccccn2)n2nc(SCc3ccccc3F)nc2N1` (centres undefined), inactive: 75%. Then `CCc1ccc(NC(=O)CSc2nc(=O)n(Cc3ccco3)c3c2CCC3)cc1`, with inactive: 73%; and `Cc1nc2nc(NC(=O)c3ccc(Cl)cc3)[nH]n2c(=O)c1Cc1ccccc1`, with inactive: 93%. Turning to `N/C(=N\OC(=O)c1cccs1)c1ccccc1`, the survival is inactive: 105%. In the case of `Cc1ccc(S(=O)(=O)c2nnn3c2nc(N2CCN(c4ccccc4F)CC2)c2ccccc23)cc1C`, the survival was inactive: 73%.
